# Experimental data reported in the supplement of paper PMC3334620.
# Over roughly 33,000 sequences, “E-score (-0.5 to 0.5)” has its median near -0.013; the highest 2% begin near 0.3. The list shows a part of the results.
# Target: T1, Msn1 (UniProt P22148)
# T1 sequence: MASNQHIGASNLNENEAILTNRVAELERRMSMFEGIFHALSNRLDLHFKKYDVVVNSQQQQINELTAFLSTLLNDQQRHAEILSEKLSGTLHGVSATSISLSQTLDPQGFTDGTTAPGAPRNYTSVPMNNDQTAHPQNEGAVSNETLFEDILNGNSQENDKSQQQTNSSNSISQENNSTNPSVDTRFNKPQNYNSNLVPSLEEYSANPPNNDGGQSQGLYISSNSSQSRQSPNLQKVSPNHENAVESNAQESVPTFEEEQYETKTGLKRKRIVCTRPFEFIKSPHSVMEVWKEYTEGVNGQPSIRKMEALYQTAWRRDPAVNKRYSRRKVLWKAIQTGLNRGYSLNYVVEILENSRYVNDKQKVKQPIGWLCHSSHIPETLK
# Test: PBM E-score (8-mer binding enrichment) (E-score (-0.5 to 0.5)); higher = stronger / more preferred TF binding; most listed sequences are background and not binding sites
# Conditions: protein concentration: 200 nM; construct: GST-full length
# Procedure, shortened: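 Full-length yeast transcription factors or their DNA-binding domains, GST-tagged and expressed with PURExpress, were applied at about 100-200 nM to universal all-10-mer Agilent arrays. These arrays had been made double-stranded by primer extension on fresh or once-stripped slides. Detection used fluorescent anti-GST, normalisation used masliner, and E-scores for ungapped eight-base words pooled with reverse complements came from the Universal PBM Analysis Suite.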
row,Sequence,PBM E-score
1,ATGGTACA,0.209
2,GAAGAAGC,-0.116
3,TGCGACAA,0.338
4,CCGCCAGG,-0.117
5,CAGTGAGC,-0.0953
6,TCCTCCCA,0.0597
7,AGGAAGGG,-0.259
8,ACTGTAGC,-0.117
9,AAAAAAAA,0.108
10,CTCTAGCA,-0.102
11,AATCTTGG,0.0184
12,CGGCCGTA,-0.064
13,AGGTACAC,0.139
14,TAGACCCA,-0.164
15,CACCCACA,-0.132
16,CCACGGGA,-0.157
17,GATTATCC,0.0161
18,CCGGAATC,-0.0855
19,CGGGGCAC,-0.174
20,CTACGGCC,-0.213
21,TGAATGCA,-0.0864
22,CGTTCCCC,-0.165
23,GGTAACGA,-0.0355
24,ACGTATGA,0.124
25,ACGATTTA,0.164

row,Sequence,PBM E-score
1,GGAATCCA,-0.125
2,AATATCAT,0.154
3,ACTCAACT,0.162
4,TCCACAAA,0.162
5,AATCCTAA,-0.193
6,GAAAGCTA,-0.154
7,AGGGGTAG,-0.37
8,AGACAGTA,0.0366
9,GATTTTCA,0.209
10,AACGTCTG,0.0795
11,CCGCAGGC,0.146
12,CATTCGAC,0.116
13,ACCCTACA,0.0246
14,AAGCAGAA,0.0216
15,AATTGGGC,0.059
16,CCTAGTGC,0.0426
17,AAGCCACT,-0.157
18,ACCCCTCC,-0.207
19,ACGAGACT,-0.0395
20,CTAGCAAA,0.0474
21,AAGGAGAT,-0.164
22,AGAACGCC,0.00504
23,AATGTAAT,0.193
24,CCGCGTCC,0.271
25,AATGCAAA,-0.035

row,Sequence,PBM E-score
1,GATTAACC,0.0184
2,GGCATGAA,0.0635
3,ACACCCTG,-0.0462
4,CCCCCGTC,-0.322
5,AATTCTCG,0.132
6,GGCATCTA,0.0452
7,GGACGTCA,0.0166
8,ACAAACTA,0.243
9,ATTCTTAG,0.077
10,CTGTAAAA,0.113
11,GCTACTCC,-0.102
12,ACAGTATA,0.137
13,AGCTCGAT,0.0123
14,GATCTGGA,-0.0195
15,GAAGCTAA,-0.117
16,GCTATCAA,0.041
17,CGCGCGTA,-0.0102
18,GTCTACCA,-0.0184
19,TGTCTCAA,0.384
20,AACAAATC,0.0327
21,AGGTTATG,-0.00368
22,AAAAAATA,0.103
23,AGTTCTCA,-0.00554
24,TATACCAA,0.102
25,CGGCGAAG,-0.00612

row,Sequence,PBM E-score
1,GTATTGAA,0.198
2,TCTGGCAA,0.123
3,CTCTCTAC,-0.0266
4,CCGACACG,-0.0249
5,ATGGGTGA,-0.0644
6,GTTCCACA,-0.118
7,CGGTCGCA,-0.0568
8,GGGCACCA,-0.208
9,CACGCCGA,-0.0169
10,CAAATGGG,0.167
11,CGCAGGCA,-0.108
12,CCAACCAG,-0.191
13,ATACGTAA,0.156
14,ACTGGTTC,-0.0366
15,CCGCTGCG,-0.148
16,ACTATTAT,0.125
17,GGAGCCAC,-0.369
18,ATGGTCTC,-0.102
19,ATCGAGCA,-0.147
20,AATAGATA,0.211
21,AATGTTGT,-0.0333
22,CTCGCGAG,0.112
23,GTCACGTA,0.053
24,CTCTCCCC,-0.213
25,CGTCACGA,0.107

row,Sequence,PBM E-score
1,AGGCACTC,-0.119
2,GCTTTTCA,-0.128
3,CGGCTACA,-0.136
4,AGTAAGTA,0.127
5,ACCCTGTC,-0.134
6,AATCCGGG,-0.133
7,CGGTCCCA,-0.185
8,CCGGCGAA,0.139
9,ATGGAATG,0.078
10,ACTGTATC,-0.033
11,AACGCACC,-0.215
12,ATACAGTC,-0.0845
13,GGAAATAA,0.163
14,AAAAGGGG,-0.213
15,ATCTTCGC,-0.0539
16,CGGGTTAA,0.0559
17,CGCCATCA,-0.106
18,GGGGTGTA,-0.0223
19,AGCACCTA,-0.236
20,CATGACGG,-0.02
21,TCGTAGAA,-0.085
22,ATAGGTGC,-0.176
23,CCCCGGCA,-0.201
24,AGGCATAG,0.0217
25,CATTACAG,0.0858

row,Sequence,PBM E-score
1,CGAGATAA,0.162
2,ACACATGA,0.0926
3,ATAGCGTG,-0.186
4,ATTGATTC,0.0911
5,AGGATAGC,-0.167
6,AAATGGTG,0.017
7,TCAACTGA,0.117
8,ACCGTCTG,-0.223
9,AACAGAAC,0.0585
10,CACCTTAC,-0.0263
11,TAGAAGGA,-0.21
12,AGGCTCTG,-0.0692
13,TATCCAGA,0.019
14,CCGGGCCG,-0.199
15,AACCGGGT,-0.3
16,ACACAGAA,0.0219
17,CAGGTCAG,-0.19
18,GCAGGTCA,-0.125
19,GGAAACGA,0.015
20,AAGCAGCC,-0.146
21,AGAATTAA,0.0398
22,TCCGCCGA,0.0597
23,AATGCCAT,0.0497
24,AACCGGTT,-0.0585
25,TCATATGA,0.297

row,Sequence,PBM E-score
1,ACGCTCTC,-0.196
2,GTAATTAA,0.144
3,CTAACGTA,-0.037
4,GGTATCTA,-0.061
5,AGAGTGAC,-0.173
6,CCTAATGA,-0.0327
7,CTATGTCA,0.167
8,ACTATTGG,0.0505
9,CGTTGAGA,0.0512
10,ACAACTTG,0.103
11,AGGCTTTC,0.0116
12,ACACCACA,0.0583
13,ACCCTTGC,-0.287
14,GATATAAA,0.101
15,GATTATGC,-0.221
16,ACGGCAAC,-0.0165
17,AAGAACCT,-0.031
18,CCCGAGCG,0.0341
19,CTACTAAG,0.0126
20,GTAGTCTA,0.0245
21,CGGTACTA,-0.0247
22,TGCATACA,0.181
